Some of the results follow. The energies were worked out here from pooled read counts, against the library average; single values are noisy.

The target in the assay is T1, Pho4 (S. cerevisiae) (UniProt P07270).
T1 sequence: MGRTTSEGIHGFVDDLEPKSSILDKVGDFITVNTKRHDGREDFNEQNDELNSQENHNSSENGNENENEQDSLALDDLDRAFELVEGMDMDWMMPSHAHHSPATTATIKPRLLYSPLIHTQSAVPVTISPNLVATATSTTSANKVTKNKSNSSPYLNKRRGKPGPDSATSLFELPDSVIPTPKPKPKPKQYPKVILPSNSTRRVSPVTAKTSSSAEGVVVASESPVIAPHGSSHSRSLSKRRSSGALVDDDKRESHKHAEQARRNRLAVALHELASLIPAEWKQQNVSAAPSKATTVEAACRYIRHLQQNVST
Description: relative binding free energy (BET-seq); higher = weaker binding. The following applies: reference: library average.
For GAATCCACGTGGGTTT, the “relative binding free energy” value is 0.418 kJ/mol.
Turning to GGGCGCACGTGGTGAT, the “relative binding free energy” value was -0.46 kJ/mol.
Next, TGGTCCACGTGGATAT: 0.0418 kJ/mol; TGTTCCACGTGCGGAT: 0.544 kJ/mol; CGATTCACGTGGTTGG: 0.293 kJ/mol.
To AAAGACACGTGATGTG belongs 0.544 kJ/mol; to CTGGTCACGTGTAGAT, 1.17 kJ/mol; to TGCGTCACGTGTATAG, -0.0418 kJ/mol.
To ACTGTCACGTGTGGCT belongs 0.586 kJ/mol; to TATGACACGTGGTGCG, -0.335 kJ/mol.
As for TAGGCCACGTGAGGAG, the “relative binding free energy” value was found to be 0.544 kJ/mol.
To TATAACACGTGTGTGG belongs -0.418 kJ/mol; to TATGCCACGTGTGGGA, -0.418 kJ/mol; to ACTTTCACGTGGTGCT, 0.628 kJ/mol.
To TTCTGCACGTGATTTT belongs 0.335 kJ/mol; to TACTTCACGTGTTGTT, 0.795 kJ/mol; to TAATTCACGTGTTCGG, 0.962 kJ/mol.
To ATAGACACGTGTTGTG belongs -0.502 kJ/mol; to AGAAGCACGTGGGATA, -0.586 kJ/mol.
Take AATTTCACGTGGAATT: the “relative binding free energy” value is 1.8 kJ/mol.
To AATAGCACGTGTTCTG belongs -0.544 kJ/mol; to TTCATCACGTGATGGG, 0.795 kJ/mol; to TGGGCCACGTGCTTGT, -0.92 kJ/mol.
To ATAGACACGTGTTTGG belongs 0.126 kJ/mol; to CATATCACGTGGTTTT, 0.502 kJ/mol; to CGGGTCACGTGTTTCT, 1 kJ/mol.
To ATTAACACGTGGGCTG belongs -0.0837 kJ/mol.
For the sequence GGGTGCACGTGCATAT, the “relative binding free energy” value was -0.0418 kJ/mol.
Next, TGACACACGTGGTGTG: 0 kJ/mol; TAATACACGTGTGATG: 0.586 kJ/mol.
To TTCTTCACGTGAGTGA belongs 1.92 kJ/mol; to CGATACACGTGTAGTG, 1.09 kJ/mol.
Regarding TTCTACACGTGGGGGG, the “relative binding free energy” value worked out at 0 kJ/mol.
As for CTATGCACGTGTAGGA, the “relative binding free energy” value was -0.126 kJ/mol.
To TAGGGCACGTGGAGCT belongs -0.711 kJ/mol; to GGAGTCACGTGGGCAT, -0.126 kJ/mol; to TCATTCACGTGGGTAG, 0.0837 kJ/mol.
Turning to ATAATCACGTGAGATG, the “relative binding free energy” value is 1.26 kJ/mol.
To CTGTGCACGTGGGGAA belongs -1.26 kJ/mol.
To CGGAGCACGTGGCTGG belongs -1.05 kJ/mol; to GCGTACACGTGGGGGA, -0.628 kJ/mol.
To TGTTTCACGTGTAACT belongs 1.34 kJ/mol; to GGATACACGTGTTGTG, 0.335 kJ/mol.
Consider ATGGTCACGTGGGCCA, for which the “relative binding free energy” value is -0.586 kJ/mol.
To CTGGTCACGTGGGGGT belongs -0.209 kJ/mol; to CGAGGCACGTGGTTTT, -0.795 kJ/mol; to GTTGTCACGTGTGGCT, 0.92 kJ/mol.
To TCCTGCACGTGTGGGT belongs -0.0418 kJ/mol; to GGGCGCACGTGAAAGG, 0.669 kJ/mol.
To CTTGGCACGTGATGTT belongs 0.167 kJ/mol; to GATGGCACGTGGAGGT, 0.126 kJ/mol.
As for TGCGACACGTGGTTTA, the “relative binding free energy” value turned out to be 0.0418 kJ/mol.
Next, GTTTACACGTGGCAGT: 0.879 kJ/mol; GTAGGCACGTGGTGGG: -0.335 kJ/mol.
Next, CGTGGCACGTGGAGTA: -0.502 kJ/mol; AGTATCACGTGCGTGA: 0.293 kJ/mol.
Take CGAGTCACGTGAAAGT: the “relative binding free energy” value was determined as 1.76 kJ/mol.
To TTATGCACGTGTTCAG belongs 0.167 kJ/mol.
To TTGGTCACGTGAATTC belongs 1.8 kJ/mol; to ATTTTCACGTGGTTCA, 0.46 kJ/mol; to TAGGGCACGTGAGGAT, 0.711 kJ/mol.
To TGTACCACGTGCGGTT belongs -0.293 kJ/mol; to GTCCTCACGTGGAGGT, 1.3 kJ/mol; to CGGATCACGTGTTGTA, 0.837 kJ/mol.
Regarding AGGGGCACGTGAGAGA, the “relative binding free energy” value was determined as 0.711 kJ/mol.
On to TGGCTCACGTGGTGGT, for which the “relative binding free energy” value amounted to 0.879 kJ/mol.
Take GTCGTCACGTGCGGGG: the “relative binding free energy” value was -0.126 kJ/mol.
For TCATGCACGTGAAGGG, the “relative binding free energy” value was determined as 0.628 kJ/mol.
Next, TTTGTCACGTGCGGAC: 0.669 kJ/mol; TGGTACACGTGGATCG: 0.377 kJ/mol.
To AGTGACACGTGCGAGT belongs -0.167 kJ/mol; to GTTTGCACGTGGTGGC, 0.251 kJ/mol; to GGAACCACGTGGGGTT, -0.0837 kJ/mol.
Next, ACTGTCACGTGATTGG: 1.21 kJ/mol; CTGGGCACGTGATTGA: -0.0837 kJ/mol; ATGAACACGTGAAAGT: 1.3 kJ/mol.
Turning to AGTAACACGTGTGGAG, the “relative binding free energy” value was 0.126 kJ/mol.
To GCGATCACGTGTGCGG belongs 0.753 kJ/mol; to TGGTGCACGTGTGTCG, -0.209 kJ/mol.
Next, TTATGCACGTGATGTA: -0.0418 kJ/mol; TAATTCACGTGGTGTT: 1.13 kJ/mol; GTTGTCACGTGATGCA: 1.13 kJ/mol.
Next, GGTATCACGTGATGAA: 0.879 kJ/mol; CGGGGCACGTGGTATT: -0.46 kJ/mol.
Turning to CGGATCACGTGTTTAT, the “relative binding free energy” value is 0.46 kJ/mol.
Next, GTGTGCACGTGTTGTA: 0.0418 kJ/mol; GTACTCACGTGGGGGC: 0.377 kJ/mol; TAATACACGTGGTAGG: 0.293 kJ/mol.
Next, GGATTCACGTGGTCTG: 0.544 kJ/mol.
Next, TGTAGCACGTGTGGGT: 0.251 kJ/mol.
TGTAGCACGTGGGATC: the “relative binding free energy” value is -0.377 kJ/mol.
Next, TCTGTCACGTGAGGCG: 0.711 kJ/mol.
To CTTTGCACGTGGGTCT belongs -0.293 kJ/mol; to TGATACACGTGAGGCT, 1.72 kJ/mol; to AGGTACACGTGGTCGG, 0.0418 kJ/mol.
For the sequence TTGTGCACGTGAAATA, the “relative binding free energy” value worked out at 1.97 kJ/mol.
Regarding TTGACCACGTGTTTGC, the “relative binding free energy” value was 0.628 kJ/mol.
To CAAGGCACGTGTGTGG belongs -0.628 kJ/mol; to CTTAGCACGTGGGAAG, -0.0837 kJ/mol; to GTCTCCACGTGGTGGT, 0.251 kJ/mol.
Next, TGTATCACGTGGTTCT: 0.377 kJ/mol; GTTAGCACGTGTAGAA: -0.251 kJ/mol.
Next, TGGTTCACGTGCGATA: 1.42 kJ/mol.
As for TGCATCACGTGAGAGT, the “relative binding free energy” value came to 1.38 kJ/mol.
To CTGGTCACGTGTTAGG belongs 0.669 kJ/mol.
To TTGAGCACGTGATGTG belongs 0.0837 kJ/mol; to TTCTTCACGTGGATTA, 1.72 kJ/mol.
Next, CGTATCACGTGGGGTA: -0.335 kJ/mol; GTGTCCACGTGTTAAG: 0.92 kJ/mol.
Regarding AGGGGCACGTGCGGCG, the “relative binding free energy” value was -1.09 kJ/mol.
Next, TGACTCACGTGAAGGA: 2.26 kJ/mol; TCAGGCACGTGGTAGT: -0.92 kJ/mol; GCTTGCACGTGTGGGT: 0.209 kJ/mol.
To TTGTCCACGTGCTAGT belongs 0.335 kJ/mol; to CGGTACACGTGGGATG, -0.377 kJ/mol.
Next, GGATGCACGTGGGTGA: -0.628 kJ/mol.
On to ATATTCACGTGGTTAA, for which the “relative binding free energy” value stood at 0.293 kJ/mol.
To TGCGACACGTGGAGGT belongs -0.209 kJ/mol; to ATCTGCACGTGAGTGG, 0.502 kJ/mol; to TGATTCACGTGTAGAA, 0.837 kJ/mol.
Next, GGTGCCACGTGGGTAT: -0.628 kJ/mol; GGTAACACGTGGTGCT: -0.167 kJ/mol.
To AATGACACGTGTAATG belongs 0.293 kJ/mol; to GGGTTCACGTGATTCT, 1.46 kJ/mol.
For the sequence TGTTACACGTGTCGTC, the “relative binding free energy” value amounted to 0.92 kJ/mol.
Next, AAGTACACGTGTCGTG: 0.544 kJ/mol; TGTGTCACGTGGAGAG: 0.377 kJ/mol.
Next, GCGTTCACGTGTTGTG: 1.55 kJ/mol; TTTTTCACGTGGTTAC: 1.05 kJ/mol.
Next, ATAGGCACGTGTATTC: -0.0418 kJ/mol.
As for TTTGTCACGTGTTATA, the “relative binding free energy” value was 0.251 kJ/mol.
To TTTAGCACGTGGGCCG belongs -0.502 kJ/mol; to TGCGTCACGTGGTGTT, -0.209 kJ/mol; to AATCTCACGTGTAGTT, 0.92 kJ/mol.
Next, ATGGGCACGTGGGTAC: -1.09 kJ/mol; GGGGCCACGTGAGGTT: 0.879 kJ/mol.
To TTTACCACGTGCGGGG belongs 0.126 kJ/mol; to GTGTGCACGTGGGAAC, -0.46 kJ/mol.
Take CTGTTCACGTGGCGAT: the “relative binding free energy” value was determined as 1.3 kJ/mol.
Next, TTTTTCACGTGACGGA: 1.42 kJ/mol.
Next, AGGTCCACGTGGATTT: 0.251 kJ/mol; AAAGGCACGTGTGGGG: -0.377 kJ/mol.
As for TTACTCACGTGTGTGA, the “relative binding free energy” value worked out at 0.418 kJ/mol.
Regarding GGGCTCACGTGGTGGG, the “relative binding free energy” value was determined as 1.46 kJ/mol.
To AGAGGCACGTGGCGAG belongs -1.46 kJ/mol; to TTATTCACGTGGCAGT, 1.05 kJ/mol.

These data come from the BET-seq Pho4 binding data (Le et al. 2018).
